Test results from paper PMC7489899.
Positions count from the first letter of the chain named. Names and notes keep the numbering of the source. Results are given in words; binding and its absence hold for the method and conditions named. Binding seen in cells or lysates may run through a third protein. Some results given as binding are weak or reduced against the parent protein; the word gives no strength. For part of these data: Sequences can lack the tags named with a protein. Each block holds one molecule with its values, some of them ahead of it.

By UniProt entry, the sequences of proteins in these tests, tags left out. Where a name states a change or a piece, a line headed by the entry shows the natural chain unless it says otherwise.
UniProt P50077: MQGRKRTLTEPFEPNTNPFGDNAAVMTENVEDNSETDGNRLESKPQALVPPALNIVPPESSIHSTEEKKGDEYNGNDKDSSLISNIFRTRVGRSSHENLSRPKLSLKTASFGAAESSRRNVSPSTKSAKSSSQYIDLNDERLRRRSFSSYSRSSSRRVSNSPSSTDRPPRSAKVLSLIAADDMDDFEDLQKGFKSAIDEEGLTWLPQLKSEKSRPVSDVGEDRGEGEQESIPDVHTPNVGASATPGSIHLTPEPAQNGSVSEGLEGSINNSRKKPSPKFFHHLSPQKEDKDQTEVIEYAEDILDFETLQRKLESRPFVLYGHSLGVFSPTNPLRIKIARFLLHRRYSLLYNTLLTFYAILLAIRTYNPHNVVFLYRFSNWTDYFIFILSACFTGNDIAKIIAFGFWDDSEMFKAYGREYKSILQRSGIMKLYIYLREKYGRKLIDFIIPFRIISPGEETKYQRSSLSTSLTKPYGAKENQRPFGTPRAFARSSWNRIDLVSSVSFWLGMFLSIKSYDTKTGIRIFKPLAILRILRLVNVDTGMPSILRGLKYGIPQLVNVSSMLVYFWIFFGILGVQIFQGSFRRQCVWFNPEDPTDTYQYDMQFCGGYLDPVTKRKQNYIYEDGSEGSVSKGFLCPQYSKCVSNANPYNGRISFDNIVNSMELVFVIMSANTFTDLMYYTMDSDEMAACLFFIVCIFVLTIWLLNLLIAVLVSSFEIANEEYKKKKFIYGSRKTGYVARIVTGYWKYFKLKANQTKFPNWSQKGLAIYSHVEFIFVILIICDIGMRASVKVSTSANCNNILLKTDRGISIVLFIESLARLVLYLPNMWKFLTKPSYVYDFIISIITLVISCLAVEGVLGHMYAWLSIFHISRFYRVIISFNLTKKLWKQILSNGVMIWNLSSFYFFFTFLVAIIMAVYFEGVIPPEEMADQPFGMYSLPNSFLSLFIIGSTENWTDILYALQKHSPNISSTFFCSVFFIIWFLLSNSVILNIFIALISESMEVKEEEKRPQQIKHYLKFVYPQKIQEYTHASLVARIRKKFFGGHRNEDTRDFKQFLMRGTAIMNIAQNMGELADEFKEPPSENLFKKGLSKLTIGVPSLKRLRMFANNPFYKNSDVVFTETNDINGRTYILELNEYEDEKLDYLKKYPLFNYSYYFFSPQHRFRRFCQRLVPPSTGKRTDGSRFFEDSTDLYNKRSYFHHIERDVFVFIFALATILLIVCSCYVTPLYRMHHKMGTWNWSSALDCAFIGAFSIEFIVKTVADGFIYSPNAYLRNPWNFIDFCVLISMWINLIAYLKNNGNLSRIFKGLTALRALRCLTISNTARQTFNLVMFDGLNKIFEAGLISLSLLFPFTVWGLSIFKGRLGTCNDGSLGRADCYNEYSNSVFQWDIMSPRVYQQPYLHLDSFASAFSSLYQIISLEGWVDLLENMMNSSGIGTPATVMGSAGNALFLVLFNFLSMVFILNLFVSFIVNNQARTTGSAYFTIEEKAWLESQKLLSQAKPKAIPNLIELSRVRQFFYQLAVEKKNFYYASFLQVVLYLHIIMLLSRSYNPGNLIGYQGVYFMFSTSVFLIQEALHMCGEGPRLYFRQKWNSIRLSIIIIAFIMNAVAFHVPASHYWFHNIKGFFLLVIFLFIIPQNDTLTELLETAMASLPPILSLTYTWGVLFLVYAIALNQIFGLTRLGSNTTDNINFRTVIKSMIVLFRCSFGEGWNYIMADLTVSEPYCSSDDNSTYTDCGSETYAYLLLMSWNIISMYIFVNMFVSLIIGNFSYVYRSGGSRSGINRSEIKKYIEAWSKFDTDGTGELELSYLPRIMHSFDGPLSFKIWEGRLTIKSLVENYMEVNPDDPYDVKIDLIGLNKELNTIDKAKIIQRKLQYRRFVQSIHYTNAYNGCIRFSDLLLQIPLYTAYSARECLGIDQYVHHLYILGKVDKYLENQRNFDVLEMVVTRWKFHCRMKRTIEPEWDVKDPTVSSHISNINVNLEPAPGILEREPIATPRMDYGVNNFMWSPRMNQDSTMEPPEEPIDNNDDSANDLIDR

Columns and labels:
[1] = biological target: T1, Mid1 tagged internally with FLAG (Mid1-FL^52), wild type (S. cerevisiae) (UniProt P41821); experiment: co-IP; whole-cell extracts of S. cerevisiae expressing both proteins; precipitated with anti-FLAG antibody (Mid1-FL^52 as bait) and nProtein A-Sepharose, 1 h at 4 °C; IP buffer 50 mM Tris-HCl pH 8.0, 1.0% Triton X-100, 150 mM NaCl, 2 mM EDTA; Western blot with anti-Cch1
T1 sequence: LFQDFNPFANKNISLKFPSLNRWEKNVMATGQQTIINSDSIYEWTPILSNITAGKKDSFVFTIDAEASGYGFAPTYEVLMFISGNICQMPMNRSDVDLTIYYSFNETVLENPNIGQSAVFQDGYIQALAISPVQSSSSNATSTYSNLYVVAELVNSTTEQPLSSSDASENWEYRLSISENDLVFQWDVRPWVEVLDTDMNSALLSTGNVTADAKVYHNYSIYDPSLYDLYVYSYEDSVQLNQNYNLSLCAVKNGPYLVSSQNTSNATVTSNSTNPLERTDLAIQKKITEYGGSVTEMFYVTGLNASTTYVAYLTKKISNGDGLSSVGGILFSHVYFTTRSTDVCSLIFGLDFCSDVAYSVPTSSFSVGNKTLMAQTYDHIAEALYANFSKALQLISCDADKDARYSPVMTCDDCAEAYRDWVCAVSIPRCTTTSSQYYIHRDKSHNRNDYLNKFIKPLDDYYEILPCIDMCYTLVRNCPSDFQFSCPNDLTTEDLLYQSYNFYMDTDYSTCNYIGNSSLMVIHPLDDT

[2] = biological target: T2, Mid1-FL^52 C417A/C431A/C498A (S. cerevisiae) (UniProt P41821); experiment: as above
T2 sequence: T1 sequence with C397A, C411A, C478A

[3] = biological target: T3, Mid1-FL^52 C417A/C498A (S. cerevisiae) (UniProt P41821); experiment: as above
T3 sequence: T1 sequence with C397A, C478A

[4] = biological target: T4, Mid1-FL^52 C431A/C498A (S. cerevisiae) (UniProt P41821); experiment: as above
T4 sequence: T1 sequence with C411A, C478A

[5] = biological target: Cch1 (Ca^2+ channel homolog 1), wild type (S. cerevisiae) (UniProt P50077); experiment: co-IP; whole-cell extracts of S. cerevisiae expressing both proteins; precipitated with anti-Cch1 antibody (Cch1 as bait) and nProtein A-Sepharose, 1 h at 4 °C; IP buffer 50 mM Tris-HCl pH 8.0, 1.0% Triton X-100, 150 mM NaCl, 2 mM EDTA; Western blot with anti-FLAG
[6] = biological target: Cch1-C1369A (S. cerevisiae) (UniProt P50077); experiment: as above
[7] = biological target: Cch1-C1379A (S. cerevisiae) (UniProt P50077); experiment: as above

binding [1]: binds
Molecule: Cch1-C587A (from UniProt P50077 1-2039)

binding [1]: binds
Molecule: Cch1-C1738A (from UniProt P50077 1-2039)

binding [1]: binds
Molecule: Cch1-M1333K (from UniProt P50077 1-2039)

binding [5]: binds
binding [6]: no binding
binding [7]: no binding
B1: Mid1 tagged internally with FLAG (Mid1-FL^52), wild type (protein, UniProt P41821 21-548)
chain: T1 sequence

binding [5]: no binding
B2: Mid1-FL^52 C417A/C498A (protein, UniProt P41821 21-548)
chain: T1 sequence with C397A, C478A

binding [5]: no binding
B3: Mid1-FL^52 C431A/C498A (protein, UniProt P41821 21-548)
chain: T1 sequence with C411A, C478A

Second part, the molecule before the results:

Molecule: Cch1 (Ca^2+ channel homolog 1), wild type (from UniProt P50077 1-2039)
binding [1]: binds
binding [2]: no binding
binding [3]: no binding
binding [4]: no binding

Molecule: Cch1-C1284R (from UniProt P50077 1-2039)
binding [1]: binds

Molecule: Cch1-M1393T (from UniProt P50077 1-2039)
binding [1]: binds

Molecule: Cch1-D1371V (from UniProt P50077 1-2039)
binding [1]: no binding

Molecule: Cch1-C1727A (from UniProt P50077 1-2039)
binding [1]: binds

Molecule: Cch1-S1322G (from UniProt P50077 1-2039)
binding [1]: binds

Molecule: Cch1-C1379A (from UniProt P50077 1-2039)
binding [1]: no binding

Molecule: Cch1-C606A (from UniProt P50077 1-2039)
binding [1]: binds

Molecule: Cch1-C636A (from UniProt P50077 1-2039)
binding [1]: binds

Molecule: Cch1-C1369A (from UniProt P50077 1-2039)
binding [1]: no binding

Molecule: Cch1-C642A (from UniProt P50077 1-2039)
binding [1]: binds

B4: Mid1-FL^52 C417A/C431A/C498A (protein, UniProt P41821 21-548)
chain: T1 sequence with C397A, C411A, C478A
binding [5]: no binding

B5: Mid1-FL^52 C417A/C431A (protein, UniProt P41821 21-548)
chain: T1 sequence with C397A, C411A
binding [5]: binds
